# Source: the supplement of paper PMC10670038
# Structures can show the parent of a compound that is named as a salt. ± gives the standard deviation of the averaged measurements. Whole data set: some 2,000 compounds, median “relative cell viability vs DMSO, compound + 0.2 uM CuET” near 1, cut for the lowest 2% near 0.25. The list shows a part of the results.
# System: TE10
# Test: relative cell viability vs DMSO, compound + 0.2 uM CuET (fraction); TE10 is an esophageal squamous carcinoma line; higher = less cytotoxic
# Conditions: 2 µM; co-treatment: CuET (bis(diethyldithiocarbamate)copper) 0.2 uM; 48 h
# Method: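 TE10 ESCC cells (1,000/well, 384-well plates) were treated with Selleck bioactive library compounds at 2 uM combined with 0.2 uM CuET (copper diethyldithiocarbamate) for 48 h. Viability was read by CellTiter-Glo and expressed relative to DMSO wells. Two technical replicates (A, B).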
row,SMILES,relative cell viability
1,CC(NC(=O)Cc1cc(F)cc(F)c1)C(=O)NC1C(=O)N(C)c2ccccc2-c2ccccc21 (centres undefined),0.97 ± 0.13
2,CCC(C)n1ncn(-c2ccc(N3CCN(c4ccc(OCC5COC(Cn6cncn6)(c6ccc(Cl)cc6Cl)O5)cc4)CC3)cc2)c1=O (centres undefined) [Itraconazole],1.125 ± 0.0015
3,Cc1cccc(Nc2ccccc2C(=O)O)c1C [Mefenamic Acid],0.933 ± 0.11
4,COC(=O)[C@H](CCSC)NC(=O)c1ccc(NC[C@@H](N)CS)cc1-c1ccccc1,1.04 ± 0.17
5,CCOc1cc(N)c(Cl)cc1C(=O)NCC1CN(Cc2ccc(F)cc2)CCO1 (centres undefined) [Mosapride Citrate],0.865 ± 0.25
6,CCCCc1nc(Cl)c(CO)n1Cc1ccc(-c2ccccc2-c2nnn[nH]2)cc1 [Losartan Potassium (DuP 753)],1.12 ± 0.086
7,CC1(C)S[C@@H]2[C@H](NC(=O)Cc3ccccc3)C(=O)N2[C@H]1C(=O)O [Penicillin G Sodium],1.07 ± 0.13
8,Clc1ccc(C(Cn2ccnc2)OCc2csc3c(Cl)cccc23)c(Cl)c1 (centres undefined) [Sertaconazole nitrate],0.803 ± 0.1
9,C=CCn1c(=O)c2cnc(Nc3ccc(N4CCN(C)CC4)cc3)nc2n1-c1cccc(C(C)(C)O)n1,0.559 ± 0.038
10,c1cn2cc(-c3ccc4cn[nH]c4c3)nc(Nc3ccc(N4CCOCC4)cc3)c2n1,0.346 ± 0.11
11,O=C1CCC(N2C(=O)c3ccccc3C2=O)C(=O)N1 (centres undefined) [Thalidomide],1.14 ± 0.068
12,CCCCCCCCCCCC1=C(O)C(=O)C=C(O)C1=O [Embelin],0.8707 ± 0.0031
13,COc1c2ccoc2cc2oc(=O)ccc12 [Bergapten],1.12 ± 0.038
14,O=C1CCc2ccc(OCCCCN3CCN(c4cccc(Cl)c4Cl)CC3)cc2N1 [Aripiprazole],1.02 ± 0.04
15,Cc1nn(C)c2c1C(c1ccc(C(F)(F)F)cc1)C(C#N)=C(N)O2 (centres undefined),1.1 ± 0.12
16,Cc1ccccc1C(OCCN(C)C)c1ccccc1 (centres undefined) [Orphenadrine Citrate],1.12 ± 0.056
17,CNCc1cc(-c2ccccc2F)n(S(=O)(=O)c2cccnc2)c1,1.19 ± 0.077
18,Cc1cc(-c2ccc(CC(=O)Nc3ccc(-c4cccnc4)cc3)cc2)ccn1,1 ± 0.038
19,COc1ccc(C2CC(c3ccccc3)=NN2c2ccc(S(N)(=O)=O)cc2)cc1 (centres undefined),1.07 ± 0.081
20,Cc1cc(Nc2cc(N3CCN(C)CC3)nc(/C=C/c3ccccc3)n2)n[nH]1 [ENMD-2076 L-(+)-Tartaric acid],0.9018 ± 0.0077
21,Cc1cc(Nc2cc(N3CCN(C)CC3)nc(/C=C/c3ccccc3)n2)n[nH]1,0.867 ± 0.015
22,COCCOc1ccc2c(c1)ncn2-c1ccc2cccc(N3CCC(N)CC3)c2n1,0.742 ± 0.079
23,Cc1nc(C#Cc2ccnc(Cl)c2)c(C)n1-c1ccc(OC(F)(F)F)cc1,1.15 ± 0.14
24,COC(=O)C1=C(C)NC(C)=C(C(=O)OCCN(C)Cc2ccccc2)C1c1cccc([N+](=O)[O-])c1 (centres undefined) [Nicardipine HCl],0.979 ± 0.011
25,CN(C)c1cccc(-c2c3c(=O)n(-c4ccccc4Cl)[nH]c3cc(=O)n2C)c1,1.18 ± 0.065
26,OC[C@H]1O[C@@H](c2ccc(Cl)c(Cc3ccc(O[C@H]4CCOC4)cc3)c2)[C@H](O)[C@@H](O)[C@@H]1O,1.02 ± 0.021
27,Cn1cc(-c2[nH]c3cc(NC(=O)[C@H](N)C4CCCCC4)cc4c3c2C=NNC4=O)cn1,0.702 ± 0.016

row,SMILES,relative cell viability
1,CC[C@@H]1/C=C(\C)C[C@H](C)C[C@H](OC)[C@H]2O[C@@](O)(C(=O)C(=O)N3CCCC[C@H]3C(=O)O[C@H](/C(C)=C/[C@@H]3CC[C@@H](O)[C@H](OC)C3)[C@H](C)[C@@H](O)CC1=O)[C@H](C)C[C@@H]2OC [Ascomycin (FK520)],1.36 ± 0.042
2,CC1(C)CNc2cc(NC(=O)c3cccnc3NCc3ccncc3)ccc21 [Motesanib Diphosphate (AMG-706)],1.11 ± 0.049
3,O=C1Cc2c([nH]c3ccc(Br)cc23)-c2ncccc2N1 [1-Azakenpaullone],1.17 ± 0.11
4,Oc1cc(O)c(Cl)cn1 [Gimeracil],1.15 ± 0.11
5,COC(=O)C1=C(C)NC(C)=C(C(=O)OCC(C)C)C1c1ccccc1[N+](=O)[O-] (centres undefined) [Nisoldipine],0.566 ± 0.051
6,Nc1ncnc2c1C(=O)N(c1ccc([C@H]3CC[C@H](CC(=O)O)CC3)cc1)CCO2,1.09 ± 0.052
7,CCN1C(=CC(C)=O)Sc2ccc(OC)cc21,1.11 ± 0.11
8,O=C1[C@H](CC[C@H](O)c2ccc(F)cc2)[C@@H](c2ccc(O)cc2)N1c1ccc(F)cc1 [Ezetimibe],0.9647 ± 0.0012
9,Cc1cnc(C(=O)NCCc2ccc(S(=O)(=O)NC(=O)NC3CCCCC3)cc2)cn1 [Glipizide],1.035 ± 0.0064
10,Cc1cc(-c2ncc(CC(=O)Nc3ccc(-c4cnccn4)cn3)cc2C)ccn1,0.9822 ± 0.002
11,COC(=O)CC(NC(=O)C(C)NC(=O)C(NC(=O)OCc1ccccc1)C(C)C)C(=O)CF (centres undefined),1.3 ± 0.057
12,CN1CCC(NC(=O)c2cc(-c3c(O)cc(O)cc3Oc3ccc([N+](=O)[O-])cc3)on2)CC1,0.6427 ± 0.0019
13,CN1CCC(=C2c3ccccc3CCc3sccc32)CC1 [Pizotifen Malate],1.07 ± 0.2
14,COc1cc2ncnc(Oc3ccc(CC(=O)Nc4cnn(C(C)C)c4)cc3)c2cc1OC,1.17 ± 0.034
15,COc1ncc(-c2ccc3nccc(-c4ccnnc4)c3c2)cc1NS(=O)(=O)c1ccc(F)cc1F,0.586 ± 0.032
16,CCCCNc1ccc(C(=O)OCCN(C)C)cc1 [Tetracaine HCl],1.37 ± 0.12
17,CCCCC(=O)N(Cc1ccc(-c2ccccc2-c2nn[nH]n2)cc1)C(C(=O)O)C(C)C.CCOC(=O)C(C)CC(Cc1ccc(-c2ccccc2)cc1)NC(=O)CCC(=O)O (centres undefined),1.11 ± 0.11
18,COc1ccc2cc(-c3nc(-c4ccc([S+](C)[O-])cc4)[nH]c3-c3ccncc3)ccc2c1 (centres undefined) [Tie2 kinase inhibitor],1.11 ± 0.035
19,CCCCCOC(=O)Nc1nc(=O)n([C@@H]2O[C@H](C)[C@@H](O)[C@H]2O)cc1F [Capecitabine],1.35 ± 0.15
20,CCN(CC)CCOc1ccc(C(=C(Cl)c2ccccc2)c2ccccc2)cc1 [Clomifene citrate],1.04 ± 0.036
21,O=c1c(O)c(-c2ccc(O)c(O)c2)oc2cc(O)cc(O)c12 [Quercetin Dihydrate],0.846 ± 0.035
22,O=c1c(O)c(-c2ccc(O)c(O)c2)oc2cc(O)cc(O)c12 [Quercetin],0.973 ± 0.059
23,O=C(Nc1ccc([N+](=O)[O-])cc1O)Nc1ccccc1Br,0.845 ± 0.06
24,O=C(c1cncc(Br)c1)N1CCC(N2CCCC2)CC1,1.1 ± 0.081
25,Cc1cnc(C(=O)O)c[n+]1[O-] [Acipimox],1.07 ± 0.063
26,O=C(O)c1cc(I)ccc1NC(=O)[C@H](Cc1ccccc1)NCc1ccccc1,1.06 ± 0.07
27,COCCc1ccc(OCC(O)CNC(C)C)cc1 (centres undefined) [Metoprolol Tartrate],1.18 ± 0.062

row,SMILES,relative cell viability
1,CCN1CCN(Cc2ccc(Nc3ncc(F)c(-c4cc(F)c5nc(C)n(C(C)C)c5c4)n3)nc2)CC1,0.888 ± 0.011
2,CC(C)Cc1ccc(C(C)C(=O)O)cc1 (centres undefined) [Ibuprofen],1.15 ± 0.013
3,COc1ccc(CN2CCN(C(c3ccc(F)cc3)c3ccc(F)cc3)CC2)c(OC)c1OC [Lomerizine HCl],0.824 ± 0.13
4,O=C(O)c1ccccc1 [Benzoic Acid],1.1 ± 0.072
5,CC[C@@H]([C@H](C)O)n1ncn(-c2ccc(N3CCN(c4ccc(OC[C@@H]5CO[C@@](Cn6cncn6)(c6ccc(F)cc6F)C5)cc4)CC3)cc2)c1=O [Posaconazole],1.15 ± 0.27
6,COC(=O)[C@]12CCC(C)(C)C[C@H]1[C@H]1C(=O)C=C3[C@@]4(C)C=C(C#N)C(=O)C(C)(C)[C@@H]4CC[C@@]3(C)[C@]1(C)CC2 [Bardoxolone Methyl],0.476 ± 0.031
7,NC1=N[C@@](c2cccc(-c3cncnc3)c2)(c2ccnc(C(F)F)c2)c2cccc(F)c21,1.25 ± 0.079
8,CCCCC[C@H](O)/C=C/[C@H]1[C@H](O)CC(=O)[C@@H]1CCCCCCC(=O)O [Alprostadil],1.06 ± 0.14
9,CC(C(=O)O)c1ccc(C(=O)c2cccs2)cc1 (centres undefined) [Suprofen],0.939 ± 0.055
10,CN1CCN(c2nc(C3=C(c4c[nH]c5ccccc45)C(=O)NC3=O)c3ccccc3n2)CC1 [Sotrastaurin],0.919 ± 0.045
11,COc1cc2ncnc(Nc3ccc(F)c(Cl)c3)c2cc1OCCCN1CCOCC1 [Gefitinib (ZD1839)],1.21 ± 0.097
12,CCOc1ccc(NC(C)=O)cc1 [Phenacetin],1.1 ± 0.083
13,CN1CCC[C@@H]1CCO[C@](C)(c1ccccc1)c1ccc(Cl)cc1 [Clemastine Fumarate],0.944 ± 0.13
14,CC(C)[C@H](N)C(=O)OCC(CO)OCn1cnc2c(=O)[nH]c(N)nc21 (some centres undefined) [Valganciclovir HCl],1.17 ± 0.18
15,O=C(c1ccc(OCCCc2c[nH]cn2)cc1)C1CC1 [Ciproxifan],1.13 ± 0.046
16,CC[N+](CC)(CC)CCOc1cccc(OCC[N+](CC)(CC)CC)c1OCC[N+](CC)(CC)CC [Gallamine Triethiodide],1.09 ± 0.032
17,C=C(c1ccc(C(=O)O)cc1)c1cc2c(cc1C)C(C)(C)CCC2(C)C [Bexarotene],1.03 ± 0.17
18,CN(C)CCCCC(=O)Nc1ccc(NC(=S)NC(=O)c2ccc(C(C)(C)C)cc2)cc1 [Tenovin-6],0.797 ± 0.064
19,Cn1cc(-c2ccc(S(=O)(=O)n3ccc(/C=C/C(=O)Nc4ccccc4N)c3)cc2)cn1,0.781 ± 0.023
20,CC/C(=C(\c1ccccc1)c1ccc(OCCN(C)C)cc1)c1ccccc1 [Tamoxifen Citrate],0.918 ± 0.037
21,CCc1oc2ccccc2c1C(=O)c1cc(Br)c(O)c(Br)c1 [Benzbromarone],1.251 ± 0.0033
22,Cc1ccccc1N=Nc1ccc(NC(=O)c2ccnn2C)c(C)c1,1.16 ± 0.076
23,CN(CCOc1ccc(CC2SC(=O)NC2=O)cc1)c1ccccn1 (centres undefined) [Rosiglitazone],1.04 ± 0.052
24,CN(CCOc1ccc(CC2SC(=O)NC2=O)cc1)c1ccccn1 (centres undefined) [Rosiglitazone maleate],1.12 ± 0.081
25,CN(CCOc1ccc(CC2SC(=O)NC2=O)cc1)c1ccccn1 (centres undefined) [Rosiglitazone HCl],1.06 ± 0.062
